Laboratory results reported in the supplement of paper PMC12217912.
This is one part of the list. Sequences were assembled here from the parent chain. Values near 0.05 are background.

B1: TEV protease; numbered along this chain (parent)
chain: MGESLFKGPRDYNPISSSICHLTNESDGHTTSLYGIGFGPFIITNKHLFRRNNGTLVVQSLHGVFKVKDTTTLQQHLVDGRDMIIIRMPKDFPPFPQKLKFREPQREERICLVTTNFQTKSMSSMVSDTSCTFPSGDGIFWKHWIQTKDGQCGSPLVSTRDGFIVGIHSASNFTNTNNYFTSVPKNFMELLTNQEAQQWVSGWRLNADSVLWGGHKVFMVKPEEPFQPVKEATQL

Variants of: B1
Experiment: raw area under fraction-flipped curve 0-4 h after induction (AUC4h, not background-subtracted), DNA-recorder readout of cleavage of the substrate (dimensionless); higher = more cleavage of the substrate by the protease variant
Details: temperature: 34 °C; time window: 0-4 h after rhamnose induction
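Further: Bxb1 expression induced with 0.2% (w/v) L-rhamnose at OD600 near 0.5, cultures sampled hourly, flipped fraction per protease–substrate barcode pair counted by paired-end Illumina sequencing.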

| Variant | area with substrate ENLCFQS | area with substrate ENLHFQS | area with substrate ENLNFQS | area with substrate ENLDFQS | area with substrate ENLEFQS | area with substrate ENLFFQS | area with substrate ENLGFQS | area with substrate ENLMFQS | area with substrate ENLPFQS | area with substrate ENLRFQS | area with substrate ENLSFQS | area with substrate ENLTFQS | area with substrate ENLVFQS | area with substrate ENLWFQS | area with substrate ENLIFQS | area with substrate ENLKFQS | area with substrate ENLQFQS | area with substrate ENLAFQS | area with substrate ENLLFQS |
| --- | --- | --- | --- | --- | --- | --- | --- | --- | --- | --- | --- | --- | --- | --- | --- | --- | --- | --- | --- |
| G2M | 0.0345 | 0.103 | 0.0689 | – | – | – | – | – | – | – | – | – | – | – | – | – | – | – | – |
| M122Q | 0.0739 | 0.0654 | 0.0629 | 0.0764 | 0.0807 | 0.0865 | 0.0521 | 0.0849 | 0.0749 | 0.0581 | 0.0761 | 0.078 | 0.0907 | 0.0671 | – | – | – | – | – |
| E103A | 0.0657 | 0.0626 | 0.0617 | 0.0564 | 0.0622 | – | – | – | 0.0567 | – | 0.0548 | – | 0.0841 | – | 0.11 | 0.0762 | – | – | – |
| N177H | 0.0807 | 0.0668 | 0.0553 | 0.0626 | 0.0409 | 0.0663 | – | – | 0.0642 | – | 0.0584 | – | – | 0.0407 | – | 0.0758 | 0.061 | – | – |
| E231H | – | 0.07 | 0.0453 | 0.0765 | – | – | – | – | 0.0505 | 0.0897 | 0.0587 | – | – | – | – | 0.069 | 0.0469 | 0.0673 | 0.062 |
| S32H | 0.0775 | 0.0708 | 0.0485 | 0.0625 | 0.0577 | 0.0887 | 0.0627 | – | 0.0575 | 0.0615 | 0.0609 | 0.0662 | – | 0.0676 | 0.0754 | 0.0812 | 0.0681 | – | 0.0453 |
| F49G | 0.0467 | 0.0535 | 0.0561 | 0.0601 | 0.0533 | 0.0589 | 0.0529 | – | 0.0597 | – | 0.0516 | – | 0.0683 | – | 0.0443 | 0.0454 | 0.0719 | – | 0.0598 |
| F49R | 0.0551 | – | – | 0.056 | – | 0.0562 | – | – | 0.0619 | 0.0462 | 0.0554 | 0.0721 | – | 0.0566 | 0.0501 | 0.0686 | 0.0683 | – | – |
| N206H | 0.0728 | 0.0652 | 0.0457 | 0.0578 | 0.0482 | 0.0736 | 0.059 | – | 0.0515 | – | 0.064 | – | – | 0.0592 | 0.0844 | – | 0.0817 | – | – |
| T44W | 0.0511 | 0.0506 | 0.0313 | 0.0532 | 0.084 | 0.0555 | 0.054 | – | 0.0436 | 0.0608 | 0.0289 | – | – | 0.0406 | 0.0374 | 0.0466 | – | – | 0.0498 |
| K68T | 0.0833 | 0.0761 | – | 0.0692 | – | – | – | – | 0.0774 | 0.07 | – | – | – | 0.061 | 0.103 | 0.0626 | 0.0539 | – | – |
| H168W | 0.0673 | 0.063 | 0.0636 | 0.0606 | 0.0628 | 0.0856 | 0.0725 | 0.0576 | 0.0546 | 0.0389 | 0.0582 | 0.062 | – | 0.0615 | 0.0548 | 0.062 | 0.0628 | – | 0.0693 |
| G162M | 0.0748 | 0.0561 | 0.0731 | 0.0484 | – | 0.0617 | – | – | – | 0.0625 | – | 0.068 | 0.0774 | – | 0.0843 | – | 0.0567 | – | 0.0686 |
| M83W | 0.044 | 0.0638 | – | 0.0691 | 0.0635 | 0.0672 | – | – | 0.103 | – | 0.0614 | – | 0.0722 | – | – | 0.0526 | 0.0681 | – | – |
| M83T | 0.0748 | 0.0493 | 0.0614 | 0.0666 | 0.0627 | 0.0666 | – | – | 0.0621 | 0.0311 | 0.0772 | – | 0.0607 | – | 0.0616 | 0.0648 | 0.0464 | – | – |
| W141M | 0.0545 | 0.0524 | 0.0656 | 0.0726 | 0.0599 | 0.0647 | – | – | 0.0528 | – | – | – | 0.0444 | – | 0.0641 | 0.0584 | 0.0566 | – | 0.0568 |
| K100L | 0.0548 | 0.0817 | 0.048 | 0.0652 | 0.0016 | 0.0573 | – | – | 0.0468 | – | – | – | – | – | – | 0.0772 | – | – | 0.102 |
| K100R | 0.084 | 0.0879 | 0.0694 | – | – | 0.0992 | – | – | – | – | – | 0.0923 | – | 0.0639 | 0.0803 | – | 0.0608 | – | – |
| D27A | 0.0704 | 0.0553 | 0.08 | 0.058 | 0.0745 | 0.078 | 0.0775 | – | 0.0599 | 0.0765 | 0.0564 | – | 0.0577 | – | 0.0798 | 0.0699 | 0.0707 | – | 0.0657 |
| H29L | 0.0681 | 0.0723 | 0.0584 | – | 0.0667 | 0.0707 | 0.0639 | – | 0.048 | 0.0841 | 0.0828 | – | 0.166 | – | 0.0854 | 0.0678 | 0.0967 | – | 0.0876 |
| G37P | 0.0439 | 0.052 | 0.092 | 0.0428 | 0.0627 | 0.057 | – | 0.0548 | – | – | 0.0489 | 0.0706 | – | – | 0.0749 | 0.0575 | 0.054 | – | 0.0363 |
| V183T | 0.0795 | 0.103 | 0.0623 | 0.0523 | 0.0614 | 0.0594 | 0.0553 | – | 0.0732 | 0.0585 | 0.054 | – | – | 0.0643 | 0.0791 | 0.0789 | – | – | – |
| K230M | 0.0625 | 0.0749 | 0.0587 | – | 0.0587 | 0.0757 | 0.0517 | 0.0696 | 0.0454 | – | 0.055 | 0.0587 | 0.0838 | 0.0717 | 0.0723 | 0.0729 | 0.082 | 0.062 | 0.0673 |
| K230V | – | 0.0785 | 0.0663 | 0.0601 | – | 0.109 | – | – | 0.0548 | – | 0.08 | – | – | 0.0078 | – | 0.0718 | 0.0527 | 0.0625 | 0.0702 |
| I139S | 0.0629 | 0.0751 | 0.0667 | 0.0564 | 0.0565 | 0.0965 | – | – | 0.0539 | 0.108 | – | – | 0.105 | 0.0713 | 0.102 | – | 0.0744 | – | 0.0785 |
| T129W | 0.07 | 0.0483 | – | 0.0668 | – | 0.0785 | 0.0499 | – | 0.0644 | 0.0935 | – | – | 0.0883 | 0.0694 | 0.079 | 0.0765 | – | – | 0.0675 |
| T129I | 0.0708 | 0.051 | – | 0.0643 | 0.0501 | 0.0615 | – | – | 0.0719 | 0.0618 | – | 0.0645 | – | – | – | 0.0647 | – | – | 0.0694 |
| K46P | 0.0646 | 0.056 | 0.0592 | 0.0595 | 0.0625 | 0.0582 | 0.0684 | – | 0.0511 | 0.0648 | 0.0518 | – | – | 0.0494 | – | 0.0621 | – | – | 0.0592 |
| C20R | 0.0453 | 0.0464 | 0.0409 | 0.0524 | 0.0783 | 0.0463 | – | – | 0.0557 | 0.0567 | 0.0423 | – | – | 0.033 | 0.0444 | 0.0458 | 0.0445 | – | 0.0499 |
